Test results as given in PMC5727935, “The distinctive cell division interactome of Neisseria gonorrhoeae” (BMC Microbiology, 2017).
Like-named read-outs stand apart in the source and are kept apart here. Results are given in words; binding and its absence hold for the method and conditions named. Some entries that bind do so weakly or less than the wild type. Tags and fused reporters may be left off the sequences shown.

T1: N. gonorrhoeae FtsW, bacterial two-hybrid fusion (Neisseria gonorrhoeae CH811) (UniProt B4RQC6)
T1 sequence: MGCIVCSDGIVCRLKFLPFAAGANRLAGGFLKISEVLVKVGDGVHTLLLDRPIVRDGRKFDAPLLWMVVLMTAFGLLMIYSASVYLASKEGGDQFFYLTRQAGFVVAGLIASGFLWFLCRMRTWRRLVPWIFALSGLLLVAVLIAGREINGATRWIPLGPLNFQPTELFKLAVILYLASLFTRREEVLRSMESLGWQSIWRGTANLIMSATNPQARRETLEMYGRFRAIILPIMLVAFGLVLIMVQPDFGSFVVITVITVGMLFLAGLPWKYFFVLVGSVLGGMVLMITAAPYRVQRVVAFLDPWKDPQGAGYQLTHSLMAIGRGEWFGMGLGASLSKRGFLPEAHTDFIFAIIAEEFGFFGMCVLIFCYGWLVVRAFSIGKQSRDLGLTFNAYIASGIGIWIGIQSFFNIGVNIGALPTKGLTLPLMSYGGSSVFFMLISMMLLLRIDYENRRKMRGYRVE

T2: N. gonorrhoeae FtsZ, bacterial two-hybrid fusion (Neisseria gonorrhoeae) (UniProt P72079)
T2 sequence: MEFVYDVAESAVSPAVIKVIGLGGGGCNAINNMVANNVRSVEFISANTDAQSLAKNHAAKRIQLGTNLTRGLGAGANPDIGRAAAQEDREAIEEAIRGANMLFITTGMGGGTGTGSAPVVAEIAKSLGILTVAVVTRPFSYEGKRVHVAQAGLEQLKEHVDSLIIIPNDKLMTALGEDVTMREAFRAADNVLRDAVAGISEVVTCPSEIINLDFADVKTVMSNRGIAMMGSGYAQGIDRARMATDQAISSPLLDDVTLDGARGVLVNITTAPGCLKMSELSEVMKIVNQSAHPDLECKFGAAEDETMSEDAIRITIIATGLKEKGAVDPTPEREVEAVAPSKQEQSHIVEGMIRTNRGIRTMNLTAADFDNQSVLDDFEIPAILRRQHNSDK

T3: N. gonorrhoeae FtsQ, bacterial two-hybrid fusion (Neisseria gonorrhoeae CH811) (UniProt Q5F6M1)
T3 sequence: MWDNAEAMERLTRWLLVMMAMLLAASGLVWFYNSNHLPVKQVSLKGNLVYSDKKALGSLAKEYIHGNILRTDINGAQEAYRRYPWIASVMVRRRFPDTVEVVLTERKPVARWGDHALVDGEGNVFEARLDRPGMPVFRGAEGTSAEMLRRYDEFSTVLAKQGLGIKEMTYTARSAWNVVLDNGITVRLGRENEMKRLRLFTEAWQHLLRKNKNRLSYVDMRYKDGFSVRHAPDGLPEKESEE


Legend:
Assay in all cases: two-hybrid; bacterial two-hybrid (Di Lallo): fusions to P22 and 434 repressor ends in E. coli R721, 34 °C; residual β-galactosidase activity against R721 without plasmids (2504 ± 34 Miller units); less than 50% counts as a positive interaction
[1] = target: T1, N. gonorrhoeae FtsW, bacterial two-hybrid fusion (Neisseria gonorrhoeae CH811)
[2] = target: T2, N. gonorrhoeae FtsZ, bacterial two-hybrid fusion (Neisseria gonorrhoeae)
[3] = target: T3, N. gonorrhoeae FtsQ, bacterial two-hybrid fusion (Neisseria gonorrhoeae CH811)
[4] = target: T2, N. gonorrhoeae FtsZ, bacterial two-hybrid fusion (Neisseria gonorrhoeae); remark: listed apart in the source
[5] = target: T3, N. gonorrhoeae FtsQ, bacterial two-hybrid fusion (Neisseria gonorrhoeae CH811); remark: listed apart in the source
[6] = target: T1, N. gonorrhoeae FtsW, bacterial two-hybrid fusion (Neisseria gonorrhoeae CH811); remark: listed apart in the source

Molecule	binding [1]	binding [4]	further results
FtsANg truncation T2 (amino acids 1-194), bacterial two-hybrid fusion (from UniProt Q5F6M2 1-194) (domain or fragment)	no binding		binding [2]: no binding; binding [3]: no binding
FtsANg truncation T1 (amino acids 1-162), bacterial two-hybrid fusion (from UniProt Q5F6M2 1-162) (domain or fragment)			binding [2]: no binding
FtsANg truncation T3 (amino acids 1-230), bacterial two-hybrid fusion (from UniProt Q5F6M2 1-230) (domain or fragment)	no binding		binding [3]: no binding
FtsANg truncation T4 (amino acids 231-301), bacterial two-hybrid fusion (from UniProt Q5F6M2 231-301) (domain or fragment)	no binding		
N. gonorrhoeae FtsZ, bacterial two-hybrid fusion (natural protein, Neisseria gonorrhoeae, UniProt P72079 1-392, looked up, FtsZ of Neisseria gonorrhoeae; Cloned in both vectors (pcIp22 and pcI434); each fusion carries one of the two repressor ends; also called FtsZNg; pcIp22-Z; source: bacterial two-hybrid fusion, expressed in E. coli R721) MEFVYDVAESAVSPAVIKVIGLGGGGCNAINNMVANNVRSVEFISANTDAQSLAKNHAAKRIQLGTNLTRGLGAGANPDIGRAAAQEDREAIEEAIRGANMLFITTGMGGGTGTGSAPVVAEIAKSLGILTVAVVTRPFSYEGKRVHVAQAGLEQLKEHVDSLIIIPNDKLMTALGEDVTMREAFRAADNVLRDAVAGISEVVTCPSEIINLDFADVKTVMSNRGIAMMGSGYAQGIDRARMATDQAISSPLLDDVTLDGARGVLVNITTAPGCLKMSELSEVMKIVNQSAHPDLECKFGAAEDETMSEDAIRITIIATGLKEKGAVDPTPEREVEAVAPSKQEQSHIVEGMIRTNRGIRTMNLTAADFDNQSVLDDFEIPAILRRQHNSDK		binds	
FtsANg truncation T3 (amino acids 1-230), bacterial two-hybrid fusion (domain or fragment, UniProt Q5F6M2 1-230) MEQQKRYISVLDIGTSKVLALIGEVQDDDKINIIGLGQAPSRGLRAGMVTNIDATVQAIRQAVNDAELMADTKITHVTTGIAGNHIRSLNSQGVVKIKDGEVTQADIDRAIETAKAINIPPDQKILDAVVQDYIIDTQLGVREPIGMSGVRLDTRVHIITGASTAVQNVQKCIELCGLKSDQIMLQPLASGQAVLTEDEKDLGVCVIDIGGGTTDIAVYMNGAIRHTSVI		binds	
FtsANg truncation T4 (amino acids 231-301), bacterial two-hybrid fusion (domain or fragment, UniProt Q5F6M2 231-301) PAGGNLITKDLSKSLRTPLDAAEYIKIHYGVASCDTEGLGEMIEVPGVGDRTSRQVSSKVLAAIISARIQE		binds	binding [5]: binds
FtsANg truncation T5 (amino acids 302-414), bacterial two-hybrid fusion (domain or fragment, UniProt Q5F6M2 302-414) IFGVVLGELQKSGFPKEVLNAGIVLTGGVSMMTGIVEFAEKIFDLPVRTGAPQEMGGLSDRVRTPRFSTAIGLLHAACKLEGNLPQPENGTVQEREGGGGLLARLKRWIENNL		binds	binding [6]: binds; binding [5]: binds
N. gonorrhoeae FtsQ, bacterial two-hybrid fusion (protein, UniProt Q5F6M1 1-242) MWDNAEAMERLTRWLLVMMAMLLAASGLVWFYNSNHLPVKQVSLKGNLVYSDKKALGSLAKEYIHGNILRTDINGAQEAYRRYPWIASVMVRRRFPDTVEVVLTERKPVARWGDHALVDGEGNVFEARLDRPGMPVFRGAEGTSAEMLRRYDEFSTVLAKQGLGIKEMTYTARSAWNVVLDNGITVRLGRENEMKRLRLFTEAWQHLLRKNKNRLSYVDMRYKDGFSVRHAPDGLPEKESEE		no binding	binding [6]: no binding
